# Test results: the supplement of paper PMC12217912
# The other results are listed elsewhere or left out. Sequences were assembled here from the parent chain. Values near 0.05 are background.
# B1: TEV protease; numbered along this chain (parent)
# chain: MGESLFKGPRDYNPISSSICHLTNESDGHTTSLYGIGFGPFIITNKHLFRRNNGTLVVQSLHGVFKVKDTTTLQQHLVDGRDMIIIRMPKDFPPFPQKLKFREPQREERICLVTTNFQTKSMSSMVSDTSCTFPSGDGIFWKHWIQTKDGQCGSPLVSTRDGFIVGIHSASNFTNTNNYFTSVPKNFMELLTNQEAQQWVSGWRLNADSVLWGGHKVFMVKPEEPFQPVKEATQL
# Variants of: B1
# Experiment: raw area under fraction-flipped curve 0-4 h after induction (AUC4h, not background-subtracted), DNA-recorder readout of cleavage of the substrate (dimensionless); higher = more cleavage of the substrate by the protease variant
# Settings: temperature: 34 °C; time window: 0-4 h after rhamnose induction
# Protocol: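 In vivo DNA recorder in E. coli TOP10(DE3) ΔrhaA at 34 °C. Each TEVp single-site mutant (parent TEVp 0) is paired with a single-site variant of the 7-mer TEVs (canonical ENLYFQ|S). The substrate sits between flexible linkers in a Bxb1-sfGFP-TEVs-SsrA fusion, so cleavage stabilises Bxb1 and speeds flipping of a recombination array, read by NGS. The value is the raw area under the fraction-flipped curve over 0-4 h after rhamnose induction (AUC4h), with ≥20 reads per time point. It is not background-subtracted; inactive controls average about 0.047.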
# 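Also: Bxb1 expression induced with 0.2% (w/v) L-rhamnose at OD600 near 0.5, cultures sampled hourly, flipped fraction per protease–substrate barcode pair counted by paired-end Illumina sequencing.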
Variant,area with substrate ENAYFQS,area with substrate ENCYFQS,area with substrate ENDYFQS,area with substrate ENEYFQS,area with substrate ENFYFQS,area with substrate ENGYFQS,area with substrate ENIYFQS,area with substrate ENMYFQS,area with substrate ENQYFQS,area with substrate ENRYFQS,area with substrate ENSYFQS,area with substrate ENYYFQS,area with substrate ENHYFQS,area with substrate ENKYFQS,area with substrate ENNYFQS,area with substrate ENPYFQS,area with substrate ENTYFQS,area with substrate ENVYFQS,area with substrate ENWYFQS
MGESLFKGPRDYNPISSSICHLTNPSDGHTTSLYGIGFGPFIITNKHLFRRNNGTLVVQSLHGVFKVKDTTTLQQHLVDGRDMIIIRMPKDFPPFPQKLKFREPQREERICLVTTNFQTKSMSSMVSDTSCTFPSGDGIFWKHWIQTKDGQCGSPLVSTRDGFIVGIHSASNFTNTNNYFTSVPKNFMELLTNQEAQQWVSGWRLNADSVLWGGHKVFMVKPEEPFQPVKEATQL [E25P],0.0494,0.0166,0.065,0.0631,0.0527,0.0444,0.0748,0.0632,0.0635,0.056,0.0606,0.0556,–,–,–,–,–,–,–
MGESLFKGPRDYNPISSSICHLTNESDGHFTSLYGIGFGPFIITNKHLFRRNNGTLVVQSLHGVFKVKDTTTLQQHLVDGRDMIIIRMPKDFPPFPQKLKFREPQREERICLVTTNFQTKSMSSMVSDTSCTFPSGDGIFWKHWIQTKDGQCGSPLVSTRDGFIVGIHSASNFTNTNNYFTSVPKNFMELLTNQEAQQWVSGWRLNADSVLWGGHKVFMVKPEEPFQPVKEATQL [T30F],0.0565,0.0637,0.0663,0.0685,0.0684,0.0584,0.0881,–,0.0686,0.0662,0.0611,0.0618,0.0616,0.0528,0.0562,0.0688,0.0581,0.0765,–
MGESLFKGPRDYNPISSSICHLTNESDGHWTSLYGIGFGPFIITNKHLFRRNNGTLVVQSLHGVFKVKDTTTLQQHLVDGRDMIIIRMPKDFPPFPQKLKFREPQREERICLVTTNFQTKSMSSMVSDTSCTFPSGDGIFWKHWIQTKDGQCGSPLVSTRDGFIVGIHSASNFTNTNNYFTSVPKNFMELLTNQEAQQWVSGWRLNADSVLWGGHKVFMVKPEEPFQPVKEATQL [T30W],0.0665,0.0537,0.0646,0.0512,–,0.0516,0.116,–,0.0438,0.0563,0.0898,0.0381,0.0649,–,–,0.0517,–,0.0857,0.0537
MGESLFKGPRDYNPISSSICHLTNESDGHTTSLYGAGFGPFIITNKHLFRRNNGTLVVQSLHGVFKVKDTTTLQQHLVDGRDMIIIRMPKDFPPFPQKLKFREPQREERICLVTTNFQTKSMSSMVSDTSCTFPSGDGIFWKHWIQTKDGQCGSPLVSTRDGFIVGIHSASNFTNTNNYFTSVPKNFMELLTNQEAQQWVSGWRLNADSVLWGGHKVFMVKPEEPFQPVKEATQL [I36A],0.0488,–,0.0511,0.054,0.05,–,0.0906,–,0.0589,0.051,0.0616,–,0.0788,0.0681,0.0552,0.0295,0.0568,0.0509,0.0051
MGESLFKGPRDYNPISSSICHLTNESDGHTTSLYGEGFGPFIITNKHLFRRNNGTLVVQSLHGVFKVKDTTTLQQHLVDGRDMIIIRMPKDFPPFPQKLKFREPQREERICLVTTNFQTKSMSSMVSDTSCTFPSGDGIFWKHWIQTKDGQCGSPLVSTRDGFIVGIHSASNFTNTNNYFTSVPKNFMELLTNQEAQQWVSGWRLNADSVLWGGHKVFMVKPEEPFQPVKEATQL [I36E],0.0485,0.0509,0.0445,0.0517,0.0466,0.0435,–,–,0.0466,–,0.043,0.0574,0.0503,0.045,0.0324,0.0356,0.0489,0.0426,0.0522
MGESLFKGPRDYNPISSSICHLTNESDGHTTSLYGDGFGPFIITNKHLFRRNNGTLVVQSLHGVFKVKDTTTLQQHLVDGRDMIIIRMPKDFPPFPQKLKFREPQREERICLVTTNFQTKSMSSMVSDTSCTFPSGDGIFWKHWIQTKDGQCGSPLVSTRDGFIVGIHSASNFTNTNNYFTSVPKNFMELLTNQEAQQWVSGWRLNADSVLWGGHKVFMVKPEEPFQPVKEATQL [I36D],0.046,0.0396,0.0469,0.0459,0.05,0.0414,0.0274,–,0.0534,0.0383,0.0332,0.0406,–,0.0494,0.0321,–,0.0343,0.0392,0.0336
MGESLFKGPRDYNPISSSICHLTNESDGHTPSLYGIGFGPFIITNKHLFRRNNGTLVVQSLHGVFKVKDTTTLQQHLVDGRDMIIIRMPKDFPPFPQKLKFREPQREERICLVTTNFQTKSMSSMVSDTSCTFPSGDGIFWKHWIQTKDGQCGSPLVSTRDGFIVGIHSASNFTNTNNYFTSVPKNFMELLTNQEAQQWVSGWRLNADSVLWGGHKVFMVKPEEPFQPVKEATQL [T31P],0.0573,0.0645,–,0.0498,0.0622,–,0.0607,0.0511,–,0.0618,0.0564,0.0626,–,0.0579,–,–,0.0587,0.0524,–
MGESLFKGPRDYNPISSSICHLTNESDGHTWSLYGIGFGPFIITNKHLFRRNNGTLVVQSLHGVFKVKDTTTLQQHLVDGRDMIIIRMPKDFPPFPQKLKFREPQREERICLVTTNFQTKSMSSMVSDTSCTFPSGDGIFWKHWIQTKDGQCGSPLVSTRDGFIVGIHSASNFTNTNNYFTSVPKNFMELLTNQEAQQWVSGWRLNADSVLWGGHKVFMVKPEEPFQPVKEATQL [T31W],0.0664,0.0617,0.0605,–,0.0475,0.0262,0.0679,0.0898,0.0566,0.0622,0.0305,0.0643,0.0441,–,0.0559,–,0.0579,–,0.0599
MGESLFKGPRDYNPISSSICHLTNESDGHTFSLYGIGFGPFIITNKHLFRRNNGTLVVQSLHGVFKVKDTTTLQQHLVDGRDMIIIRMPKDFPPFPQKLKFREPQREERICLVTTNFQTKSMSSMVSDTSCTFPSGDGIFWKHWIQTKDGQCGSPLVSTRDGFIVGIHSASNFTNTNNYFTSVPKNFMELLTNQEAQQWVSGWRLNADSVLWGGHKVFMVKPEEPFQPVKEATQL [T31F],0.069,0.0673,0.0702,0.0654,0.0466,0.0603,0.0987,–,0.0593,–,0.0547,0.0615,0.0619,0.0939,0.0565,0.0572,0.0517,0.0644,–
